Our source for the EC50 values is patent publication US20220378932A1 (published 2022).

For orientation: EC50 means the concentration at which the effect is half-maximal.

Assay [1] addresses T1, Fc fusion of the human GFRα1 extracellular domain (GFRα1:Fc fusion protein) (human, UniProt P56159 25-429, limits assumed).
T1 construct: extracellular domain; Bought (R&D Systems), captured on plates by a mouse anti-human IgG; also called GFRα1 ECD; GFRal; not shown: Fc part of the bought fusion, captured by a mouse anti-human Fc antibody
T1 sequence (looked up): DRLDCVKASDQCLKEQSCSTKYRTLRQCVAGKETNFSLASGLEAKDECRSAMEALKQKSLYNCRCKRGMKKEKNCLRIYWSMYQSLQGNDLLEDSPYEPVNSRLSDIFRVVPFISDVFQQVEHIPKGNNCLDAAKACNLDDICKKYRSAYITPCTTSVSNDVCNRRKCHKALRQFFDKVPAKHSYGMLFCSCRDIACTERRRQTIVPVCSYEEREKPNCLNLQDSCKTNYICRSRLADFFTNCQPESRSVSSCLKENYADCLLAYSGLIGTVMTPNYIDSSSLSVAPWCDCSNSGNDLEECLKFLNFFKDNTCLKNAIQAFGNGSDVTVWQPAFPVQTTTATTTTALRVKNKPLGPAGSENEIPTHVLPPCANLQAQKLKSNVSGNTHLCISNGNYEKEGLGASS
Kind of assay: ELISA on GFRα1:Fc captured by mouse anti-human IgG, detection with goat anti-GDNF antibody; COS cell-derived protein. For orientation: In an ELISA, binding on a coated surface is turned into a signal by an enzyme label.

Assay [2] addresses T1, Fc fusion of the human GFRα1 …. Kind of assay: ELISA on captured GFRα1:Fc (format of FIG. 33), CHO-derived protein.
The target of assay [3] is T2, human insulin receptor extracellular domain (HIR ECD) (human, UniProt P06213 28-956, limits assumed).
T2 construct: extracellular domain
Nature of the assay: ELISA on plated HIR ECD, COS cell-derived protein, detection with biotinylated goat anti-human IgG; non-linear regression.

B1: HIRMAb-GDNF fusion protein (other)
heavy: QVQLQQSGPELVKPGALVKISCKASGYTFTNYDIHWVKQRPGQGLEWIGWIYPGDGSTKYNEKFKGKATLTADKSSSTAYMHLSSLTSEKSAVYFCAREWAYWGQGTLVTVSA[human IgG1 constant region cut from this listing]SSSPDKQMAVLPRRERNRQAAAANPENSRGKGRRGQRGKNRGCVLTAIHLNVTDLGLGYETKEELIFRYCSGSCDAAETTYDKILKNLSRNRRLVSDKVGQACCRPIAFDDDLSFLDDNLVYHILRKHSAKRCGCI
light: DIQMTQSPSSLSASLGERVSLTCRASQDIGGNLYWLQQGPDGTIKRLIYATSSLDSGVPKRFSGSRSGSDYSLTISSLESEDFVDYYCLQYSSSPWTFGGGTKMEIKRTVAAPSVFIFPPSDEQLKSGTASVVCLLNNFYPREAKVQWKVDNALQSGNSQESVTEQDSKDSTYSLSSTLTLSKADYEKHKVYACEVTHQGLSSPVTKSFNRGEC
notes: IgG1-neurotrophin fusion; both are written under this one molecule and the cell source is named under assay; Tritiated in the capillary assay; also called HIRMAb-GNDF; AGT-190
Turning to B1, the EC50 turned out to be 1.68 nM in assay [1], 1.44 nM in assay [2] and 0.87 nM in assay [3].
